Experimental data published in PubChem BioAssay AID2675 (National Center for Advancing Translational Sciences (NCATS), 2010).
Values joined by “and” are separate entries in the source; they are usually repeats but may differ in a detail not shown here. Equal entries are not always repeated. In all, about 280,000 compounds went through this assay and about 100 (0.036%) were called active. This list was built around the results that the source calls inconclusive (neither active nor inactive); the mix of calls is not that of the screen. Calls come from the whole dose curve; as a rule, active = well fitted inhibition curve with a large enough effect in the signal ratio, with a control signal flat (not every such curve was filed as active); inconclusive = small, poorly fitted or top-dose-only effect, or effect the other way, or a change in a side signal; inactive = no such curve, though single readings can be large or run the other way; the % refers to the signal ratio. A potency beside an inconclusive call is a rough fit, not a confirmed value. A note “side channel” means that the fit belongs to a control or component signal, not to the main read-out.
% is set by controls: 0 for no effect and ±100 for the full control effect; potency is the fitted concentration of half-maximal effect; tags give direction and shape of the fitted curve or compound fluorescence and quenching.

What follows are molecules tested against Muscleblind-like protein 1 (Homo sapiens) (UniProt Q9NR56) (assay: qHTS Assay for Inhibitors of MBNL1-poly(CUG) RNA binding). Details: TR-FRET MBNL1-His/biotin-(CUG)12 binding, 665/545 ratio; activity change, negative = inhibition: at 57.5 µM (top of the series).
Chain of UniProt Q9NR56 (Q9NR56 whole entry, looked up): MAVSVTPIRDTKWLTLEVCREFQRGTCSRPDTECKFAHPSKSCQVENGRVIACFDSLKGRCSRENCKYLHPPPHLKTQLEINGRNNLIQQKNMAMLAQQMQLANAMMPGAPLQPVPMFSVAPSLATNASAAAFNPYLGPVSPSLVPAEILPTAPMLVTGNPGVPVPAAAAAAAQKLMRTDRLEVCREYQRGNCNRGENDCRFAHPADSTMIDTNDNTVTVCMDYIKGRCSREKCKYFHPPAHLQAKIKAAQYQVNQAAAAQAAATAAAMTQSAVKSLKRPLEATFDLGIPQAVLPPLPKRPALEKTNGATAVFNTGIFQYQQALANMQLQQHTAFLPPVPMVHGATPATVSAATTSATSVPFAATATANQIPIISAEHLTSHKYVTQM
In short: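 Ratiometric TR-FRET (665 over 545 nm, excitation 340 nm) tracks disruption of MBNL1-His/biotin-(CUG)12 complex after 60 min at room temperature, with compounds at 92 nM to 58 uM final.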
With CC(=O)c1ccc(NC2=C(N3CCOCC3)C(=O)c3ccccc3C2=O)cc1 the Potency was inconclusive: 28.2 µM [quencher, partial curve]. For Cn1c(N)c(S(=O)(=O)c2ccc(Br)cc2)c2nc3ccccc3nc21, the “activity change, negative = inhibition” value was inactive: 9.28%. In the case of COc1ccccc1OCCCc1c(C)n[nH]c1C, the “activity change, negative = inhibition” value is reported as inactive: -15.4%. CC(=O)N(C)c1ccc(NC(=O)CCN2C(=O)c3ccccc3C2=O)cc1 was tested, and the “activity change, negative = inhibition” value was inactive: 8.31%. With COc1cc(/C=C2/SC(=S)N(c3c(C)n(C)n(-c4ccccc4)c3=O)C2=O)ccc1O the Potency was inconclusive: 8.91 µM [quencher, side channel, partial curve]. In the case of CC(=O)NC(Cc1ccc(F)cc1)C(=O)NC1CCN(C(=O)Nc2ccc(F)cc2)CC1 (centres undefined), the “activity change, negative = inhibition” value is reported as inactive: -0.0138%. In the case of O=[N+]([O-])c1ccc(C2Oc3ccccc3C3CC(c4ccccc4)=NN32)s1 (centres undefined), the Potency is reported as inconclusive: 12.6 µM [quencher, side channel, partial curve]. COc1ccc(S(=O)(=O)N=Nc2c(O)[nH]c3ccccc23)cc1 was tested, and the Potency was inconclusive: 25.1 µM [quencher, side channel, single point]. With CCOC(=O)C1C(=O)C=C(c2ccc(NS(C)(=O)=O)cc2)CC1c1ccco1 (centres undefined) the Potency was inconclusive: 31.6 µM [quencher, side channel, partial curve]. For O=C(N/N=C/c1ccc(Cl)cc1Cl)c1ccncc1, the Potency was inconclusive: 39.8 µM [quencher, side channel, partial curve, poor fit]. For Cc1cc(C)c[n+](-c2nc3ccccc3nc2C(=C=[N-])C#N)c1, the Potency was inconclusive: 20 µM [quencher, side channel, partial curve] and inconclusive: 17.8 µM [quencher, side channel, partial curve]. In the case of COc1cc(NS(=O)(=O)c2ccc(NC(=S)NC(=O)c3cccs3)cc2)nc(OC)n1, the “activity change, negative = inhibition” value is reported as inactive: -20.4%. With O=C(N/C(=C/c1ccco1)C(=O)N1CCCC1)c1cccs1 the Potency was inconclusive: 15.8 µM [quencher, side channel, partial curve]. With CC(Nc1nc(N2CCCCC2)nc2ccccc12)c1ccccc1 (centres undefined) the “activity change, negative = inhibition” value was inactive: -8.78%. In the case of O=[N+]([O-])c1c(NCCCO)cc(N2CCN(Cc3ccc4c(c3)OCO4)CC2)c2nonc12, the Potency is reported as inconclusive: 8.91 µM [quencher, side channel, partial curve]. COC(=O)C1=CN(Cc2ccc(OC)cc2)C=C(C(=O)OC)C1c1cc(OC)c(OC)c(OC)c1 was tested, and the Potency was inconclusive: 31.6 µM [quencher, side channel, single point]. With CCCCCOC(=O)c1c(N)n(CCOC)c2nc3ccccc3nc12 the Potency was inconclusive: 25.1 µM [quencher, side channel, partial curve]. With C/C(CCC(C)C)=N\Nc1ccc(S(N)(=O)=O)cc1[N+](=O)[O-] the Potency was inconclusive: 15.8 µM [quencher, side channel, partial curve]. O=[N+]([O-])c1ccc(N2CCN(c3ccccc3F)CC2)c(S(=O)(=O)N2CCOCC2)c1 was tested, and the Potency was inconclusive: 7.94 µM [quencher, side channel, full curve]. CC(Cc1ccsc1)NC(=O)CCc1nnc(CCc2ccccc2)o1 (centres undefined) was tested, and the “activity change, negative = inhibition” value was inactive: -8.97%. Cn1c(CNc2nc3ccccc3n2CCN2CCCCC2)nc2ccccc21 was tested, and the “activity change, negative = inhibition” value was inactive: -14.6%. For Cc1ccc(C)c(SCC(=O)Nc2ccc(S(=O)(=O)Nc3ncccn3)cc2)c1, the “activity change, negative = inhibition” value was inactive: -24.8%. In the case of O=[N+]([O-])c1ccc(O)c(/C=N/NC2=NS(=O)(=O)c3ccccc32)c1, the Potency is reported as inconclusive: 3.16 µM [quencher, side channel, full curve, poor fit]. For O=C(O)c1ccc2c(c1)C(=O)N(CCC1=CCCCC1)C2=O, the Potency was inconclusive: 22.4 µM [quencher, side channel, single point]. In the case of CCCCn1c(-c2cccnc2)nc2cc3[nH]c(=O)c(C(C)C)nc3cc21, the Potency is reported as inconclusive: 31.6 µM [quencher, side channel, single point]. With CCOC(=O)c1c(NC(=O)CSc2cn(CC)c3ccccc23)sc2c1CCC2 the Potency was inconclusive: 79.4 µM [inhibitor, single point]. CC(C)OCCCNC(=O)CN1CCN(Cc2ccccc2Cl)C1=O was tested, and the “activity change, negative = inhibition” value was inactive: -0.265%. For O=C(NC(=S)Nc1c(Cl)ccc2nsnc12)c1ccco1, the Potency was inconclusive: 0.631 µM [quencher, side channel, full curve, poor fit]. In the case of COC(=O)/C=C1/S/C(=N/NC(=O)c2ccccc2C)NC1=O, the Potency is reported as inconclusive: 17.8 µM [quencher, side channel, single point]. CCOC(=O)Cn1cc(/C=N/NC(=O)c2cc3ccccc3o2)c2ccccc21 was tested, and the Potency was inconclusive: 25.1 µM [quencher, side channel, partial curve]. For O=C(O)c1ccc2c3c(ncnc13)-c1ccccc1C2=O, the Potency was inconclusive: 3.16 µM [quencher, side channel, full curve]. CCC(=O)Nc1nonc1-c1nc2ccccc2n1CCC(C)C was tested, and the “activity change, negative = inhibition” value was inactive: -8.38%. For CCOC(=O)C1CCN(C(=S)Nc2cccc(C)c2)CC1, the “activity change, negative = inhibition” value was inactive: -4.05%. COc1cccc(CNC(=O)Cn2ccc([N+](=O)[O-])n2)c1 was tested, and the Potency was inconclusive: 35.5 µM [quencher, side channel, single point]. For C=CCNC(=S)NNC(=O)c1ccc([N+](=O)[O-])cc1, the Potency was inconclusive: 17.8 µM [quencher, side channel, partial curve]. In the case of O=C(CN1CCCCCC1)N/N=C/c1ccc2ccccc2c1, the Potency is reported as inconclusive: 31.6 µM [quencher, side channel, single point]. For COc1ccc2ccccc2c1/C=N/NC(=O)c1ccc(C)nc1, the Potency was inconclusive: 14.1 µM [quencher, side channel, partial curve]. With O=[N+]([O-])c1ccc(CSc2ncnc3c2ncn3[C@@H]2O[C@H](CO)[C@H](O)[C@H]2O)cc1 the Potency was inconclusive: 7.94 µM [quencher, side channel, partial curve]. O=C(CCNC(=O)c1ccc([N+](=O)[O-])cc1)Nc1ccccc1N1CCOCC1 was tested, and the Potency was inconclusive: 14.1 µM [quencher, side channel, partial curve].
